{
  "source": "PubChem BioAssay AID624418",
  "about": "(National Center for Advancing Translational Sciences (NCATS), 2012)",
  "note": "Hit rate of the full screen: of about 410,000 compounds, about 530 (0.13%) were called active. The inconclusive results got no clear call from the source; some entries with a clear call stand among them for comparison. Calls come from the whole dose curve; as a rule, active = well fitted inhibition curve with a large enough effect; inconclusive = small, poorly fitted or top-dose-only effect, or another doubt; inactive = no such curve, though single readings can be large or run the other way. Potencies of inconclusive entries are doubtful fits and often do not repeat. Potency is the fitted concentration of half-maximal effect.",
  "data": [
    {"experiment": "qHTS of GLP-1 Receptor Inverse Agonists: Cytotox Screen", "conditions": "HEK293 cAMP-luciferase reporter cells, luminescence, 24 h; series mostly up to 38.3 µM", "how_it_was_run": "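Quantitative HTS format, 1536 wells, 200 cells/uL seeded. Compounds: 23 nL, 24 h, 37 °C. Detection: luciferase reagent, luminescence at 12 min RT; decreased signal taken as cytotoxic.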", "values": [
      {"smiles": "O=[N+]([O-])c1ccc(Cl)c([N+](=O)[O-])c1", "Potency": "inconclusive: 11.2 µM [inhibitor, single point]"},
      {"smiles": "Cc1cc(C)c2c(c1)cc(C)c1nnc(SCC(=O)Nc3cc(C)on3)n12", "Potency": "active: 10 µM"},
      {"smiles": "O=C(CCl)Nc1cc(S(=O)(=O)N2CCCCCC2)ccc1Cl", "Potency": "active: 11.2 µM"},
      {"smiles": "CC1=C(N2CC2)C(=O)C(CO)=C(N2CC2)C1=O", "Potency": "active: 0.794 µM"},
      {"smiles": "Cc1nn(Cc2ccc(Cl)cc2)c(C)c1NC(=O)c1cc(-c2ccc3c(c2)OCO3)on1", "Potency": "inconclusive: 11.2 µM [inhibitor, partial curve, poor fit]"},
      {"smiles": "CC(=O)Nc1ccc(NC(=O)c2nc(S(=O)(=O)Cc3ccccc3)ncc2Cl)cc1", "Potency": "inconclusive: 31.6 µM [inhibitor, single point]"},
      {"smiles": "O=c1[nH]c2ccccc2n1C1CCN(C(CCc2ccccc2)c2nnnn2-c2ccc3c(c2)OCCO3)CC1", "note": "(stereo not given)", "Potency": "inconclusive: 2 µM [inhibitor, partial curve, poor fit]"},
      {"smiles": "c1ccc2c(c1)[IH]c1ccccc1-2", "Potency": "inconclusive: 7.94 µM [inhibitor, partial curve, poor fit]"},
      {"smiles": "Cc1cc(C)n(-c2nc(SCCN(C)C)c3c4c(sc3n2)CCCC4)n1", "Potency": "inconclusive: 12.6 µM [inhibitor, single point]"},
      {"smiles": "COc1ccc(Cn2c(C(=O)O)c(CNCc3ccc(SC)cc3)c3ccc(OC)cc32)cc1", "Potency": "inconclusive: 28.2 µM [inhibitor, single point]"},
      {"smiles": "Cc1ccc(NC(=O)CSc2nc3ccccc3c(=O)n2CCCN2CCCCC2)cc1Cl", "Potency": "inconclusive: 28.2 µM [inhibitor, single point]"},
      {"smiles": "OCCN1CCN(C2Cc3cc(Cl)ccc3Sc3ccc(Cl)cc32)CC1", "note": "(stereo not given) (tested in a mixture with another compound)", "Potency": "inconclusive: 28.2 µM [inhibitor, single point]"},
      {"smiles": "COc1ccc(C(c2nnnn2-c2ccc(OC)cc2)N2CCC(n3c(=O)[nH]c4ccccc43)CC2)cc1", "note": "(stereo not given)", "Potency": "inconclusive: 10 µM [inhibitor, partial curve]"},
      {"smiles": "COc1ccccc1N1CCN(C(=O)c2sc3nc(C)nc(N4CCN(c5ccccn5)CC4)c3c2C)CC1", "Potency": "inconclusive: 11.2 µM [inhibitor, single point]"},
      {"smiles": "CCOc1cccc(-c2nn(-c3ccccc3)cc2/C=C(/C#N)C(=O)NCCCn2ccnc2)c1", "Potency": "inconclusive: 28.2 µM [inhibitor, single point]"},
      {"smiles": "CCN(CC)CCNC(=O)c1nn(-c2ccc(Cl)cc2)c2c1CCc1cc(OC)ccc1-2", "Potency": "inconclusive: 28.2 µM [inhibitor, single point]"},
      {"smiles": "CCOC(C(=O)OCC(O)CN(CC)CC)(c1ccccc1)c1ccccc1", "note": "(stereo not given)", "Potency": "inconclusive: 11.2 µM [inhibitor, single point]"},
      {"smiles": "c1ccc(-c2[nH]c(-c3ccccc3)[n+](CC3CO3)c2-c2ccccc2)cc1", "note": "(stereo not given)", "Potency": "inconclusive: 10 µM [inhibitor, single point]"},
      {"smiles": "CN1CC=C2C(C#N)=C(N)C(C#N)(C#N)C(c3ccncc3)C2C1", "note": "(stereo not given)", "Potency": "inactive"},
      {"smiles": "CCN1C(=O)C(CC(=O)Nc2ccc(OC)cc2)N(CCCN2CCN(c3ccc(F)cc3)CC2)C1=S", "note": "(stereo not given)", "Potency": "inconclusive: 11.2 µM [inhibitor, single point]"},
      {"smiles": "Cc1cc(N=Nc2ccccc2C)ccc1N", "Potency": "inactive"},
      {"smiles": "CCOC(=O)c1c(NC(=O)CSc2nnc(CNc3ccc(OC)cc3)n2C)sc(C)c1C", "Potency": "inconclusive: 31.6 µM [inhibitor, single point]"},
      {"smiles": "Cc1ccc(/C=C2/C(=O)NC(=O)N(C)C2=O)cc1", "Potency": "inconclusive: 28.2 µM [inhibitor, single point]"},
      {"smiles": "ClCCN(CCCl)c1ccc(-n2cnc3c(Cl)ncnc32)cc1", "Potency": "inconclusive: 12.6 µM [inhibitor, partial curve, poor fit]"},
      {"smiles": "O=C(c1cccn2c(=O)c3cc(Cl)ccc3nc12)N1CCC2(CC1)OCCO2", "Potency": "inactive"},
      {"smiles": "O=C(c1ccc2nsnc2c1)N1CCN(c2ccc([N+](=O)[O-])cc2)CC1", "Potency": "inconclusive: 28.2 µM [inhibitor, single point]"},
      {"smiles": "COc1ccc(N2C(=O)C(Cl)=C(Oc3cccc(OC)c3)C2=O)cc1", "Potency": "inconclusive: 28.2 µM [inhibitor, single point]"},
      {"smiles": "CCn1cc(C(=O)NCc2ccc3c(c2)OCO3)c(=O)c2cc(F)c(N3CCN(C(=O)c4ccco4)CC3)cc21", "Potency": "inconclusive: 11.2 µM [inhibitor, single point]"},
      {"smiles": "CCNC(=O)COc1ccc(/C=C2\\COc3ccccc3C2=O)cc1OC", "Potency": "inconclusive: 28.2 µM [inhibitor, single point]"},
      {"smiles": "O=C1NC(=O)C(C(CC(=O)c2ccccc2)c2ccccc2)C(=O)N1", "note": "(stereo not given)", "Potency": "inactive"},
      {"smiles": "O=C1c2cccc3cccc(c23)C(=O)N1CCN1CCN(CC(O)COCc2ccc(Cl)cc2)CC1", "note": "(stereo not given)", "Potency": "inconclusive: 11.2 µM [inhibitor, partial curve, poor fit]"},
      {"smiles": "Cc1nc2ccccn2c1P(=S)(N1CCCCC1)N1CCCCC1", "Potency": "inconclusive: 31.6 µM [inhibitor, single point]"},
      {"smiles": "Cc1cc(C)c(C(=O)CN2CCOCC2)c(C)c1", "Potency": "inactive"},
      {"smiles": "CCC(=O)N(C1=C(NC)C(=O)c2ccccc2C1=O)C(C)C", "Potency": "inconclusive: 10 µM [inhibitor, partial curve, poor fit]"},
      {"smiles": "O=C(/C=C/c1ccncc1)c1ccc2c(c1)OCCO2", "Potency": "inconclusive: 28.2 µM [inhibitor, single point]"},
      {"smiles": "O=C(NCc1ccco1)c1cc2cc3ccc(Cl)cc3nc2o1", "Potency": "inconclusive: 28.2 µM [inhibitor, single point]"},
      {"smiles": "CC(C)(O)/C=C/C(=O)[C@](C)(O)C1[C@H](O)C[C@@]2(C)C3CC=C4C(C[C@H](O)[C@@H](O)C4(C)C)[C@]3(C)C(=O)C[C@]12C", "note": "(stereo not given in full)", "Potency": "inconclusive: 11.2 µM [inhibitor, partial curve]"},
      {"smiles": "Cc1cccc(-c2cccc(NC(=O)C3CCCN(Cc4cccnc4)C3)c2)c1", "note": "(stereo not given)", "Potency": "inconclusive: 12.6 µM [inhibitor, single point]"},
      {"smiles": "Cc1[nH]n(-c2ccccc2)c(=O)c1/C=N/Nc1nncc(-c2ccccc2)n1", "Potency": "inconclusive: 3.98 µM [inhibitor, full curve]"},
      {"smiles": "O=C(c1c(F)c(F)c(F)c(F)c1F)N(Cc1ccccc1)Cc1ccccc1", "Potency": "inconclusive: 20 µM [inhibitor, single point]"},
      {"smiles": "NC(Cc1ccc(O)cc1)C(=O)NN=Cc1ccc(N(CCCl)CCCl)cc1", "note": "(stereo not given)", "Potency": "inconclusive: 3.55 µM [inhibitor, partial curve]"},
      {"smiles": "Cc1ccc(NC(=S)NNC(=S)Nc2ccc(C)cc2C)cc1", "Potency": "inconclusive: 22.4 µM [inhibitor, single point]"},
      {"smiles": "CN(C(=O)Oc1ccc(Cl)c2cccnc12)c1ccccc1", "Potency": "inactive"},
      {"smiles": "Cc1nn(CC(O)CN2c3ccccc3Sc3ccccc32)c(C)c1Br", "note": "(stereo not given)", "Potency": "inconclusive: 28.2 µM [inhibitor, single point]"},
      {"smiles": "CC(=O)O[C@@]12CO[C@@H]1C[C@H](O)[C@@]1(C)C(=O)[C@H](O)C3=C(C)[C@@H](OC(=O)[C@H](O)[C@@H](NC(=O)c4ccccc4)c4ccccc4)C[C@@](O)([C@@H](OC(=O)c4ccccc4)C12)C3(C)C", "note": "(stereo not given in full)", "Potency": "inconclusive: 0.0794 µM [inhibitor, full curve, poor fit]"},
      {"smiles": "Cc1cc2c(=Cc3ccc(N(C)C)cc3)c3ccccc3n2[n+]1C", "Potency": "inconclusive: 10 µM [inhibitor, partial curve, poor fit]"},
      {"smiles": "COC(=O)C1=C(c2ccc(Cl)c(C(F)(F)F)c2)C[C@@H]2CC[C@H]1N2C(=O)NCCOc1ccccc1Cl", "Potency": "inconclusive: 28.2 µM [inhibitor, single point]"},
      {"smiles": "O=S(=O)(NC1CN2CCC1CC2)c1ccc(Cl)cc1", "note": "(stereo not given)", "Potency": "inconclusive: 0.708 µM [inhibitor, full curve, poor fit]"},
      {"smiles": "CN1/C(=C\\C=Nc2ccccc2)C(C)(C)c2ccccc21", "Potency": "inconclusive: 12.6 µM [inhibitor, single point]"},
      {"smiles": "Cc1ccc2scc(N3CCN(C)CC3)c(=O)c2c1", "Potency": "inactive"},
      {"smiles": "Cn1c(SCC(=O)N/N=C/c2ccc([N+](=O)[O-])s2)nnc1-c1ccccc1", "Potency": "inconclusive: 28.2 µM [inhibitor, single point]"},
      {"smiles": "CCC1C/C(=C\\c2cc(OC)c(OC)cc2OC)C(=O)/C(=C/c2cc(OC)c(OC)cc2OC)C1", "note": "(stereo not given)", "Potency": "inconclusive: 12.6 µM [inhibitor, partial curve, poor fit]"},
      {"smiles": "Cc1ccc(NS(=O)(=O)c2cc(C(=O)NCCSc3ccc(C)cc3)ccc2C)cc1", "Potency": "inconclusive: 12.6 µM [inhibitor, single point]"},
      {"smiles": "CCc1ccc(NC(=S)NC2CC3CCC(C2)N3Cc2ccco2)cc1", "note": "(stereo not given)", "Potency": "inconclusive: 20 µM [inhibitor, single point]"},
      {"smiles": "COc1ccc(C2NCc3ccc4c(c3-n3cccc32)OCO4)cc1O", "note": "(stereo not given)", "Potency": "inconclusive: 1.12 µM [inhibitor, full curve]"},
      {"smiles": "O=[N+]([O-])c1ccc(NC(=S)NCCc2ccc(F)cc2)cc1", "Potency": "inconclusive: 28.2 µM [inhibitor, single point]"},
      {"smiles": "Cc1cc(C)nc(NC(=NCCc2c[nH]c3ccccc23)NC(=O)Nc2ccccc2)n1", "Potency": "inconclusive: 10 µM [inhibitor, partial curve]"},
      {"smiles": "Cc1nc(Nc2ccc(F)cc2)[nH]c(=O)c1CCC(C)C", "Potency": "inconclusive: 12.6 µM [inhibitor, single point]"},
      {"smiles": "N=C1c2ccccc2CN1c1ccc(F)c([N+](=O)[O-])c1", "Potency": "inconclusive: 12.6 µM [inhibitor, partial curve, poor fit]"},
      {"smiles": "COCCN=c1scc(-c2cccs2)n1/N=C/c1ccc(O)c(O)c1O", "Potency": "inconclusive: 11.2 µM [inhibitor, partial curve]"}
    ]}
  ]
}
